Results taken from the supplement of paper PMC4604168 (melanoma cell lines).
The other results are listed elsewhere or left out. Repeats are few or missing, and single values can be far off.
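Also: cell number obtained by counting DAPI-stained nuclei in high-throughput microscope images with image analysis software, screen run in 1,536-well plates.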

The molecules below were run on UACC62 (assay: cell count relative to DMSO control; melanoma cells; higher = more viable cells). Settings: library dose: low library concentration; 72 h; first compound 0.4 µM.
Work on `Cn1sc(=O)n(Cc2ccccc2)c1=O` + c1cc(-c2cnn3cc(-c4ccc(OCCN5CCCCC5)cc4)cnc23)ccn1 [Dorsomorphin] (partner dose 0.4 µM) yielded a cell count of 89.8%.
`C[C@@H](N)c1ccc(C(=O)Nc2ccnc3[nH]ccc23)cc1` + Oc1nc(-c2ccc(C(F)(F)F)cc2)nc2c1CSCC2 [XAV939] (partner dose 2 µM) was tested, and the cell count was 85.5%.
With `CCCCCCCCCCCCCCCCCCOP(=O)([O-])OC1CC[N+](C)(C)CC1` [Perifosine] + Cn1cc(/C=C2\C(=O)Nc3cccnc32)c2ccccc21 [GW441756] (partner dose 0.4 µM) the cell count was 96.2%.
`C[C@@H](N)c1ccc(C(=O)Nc2ccnc3[nH]ccc23)cc1` + CN(NC(=O)CC(=O)NN(C)C(=S)c1ccccc1)C(=S)c1ccccc1 [STA4783] (partner dose 0.006 µM) gave a cell count of 67.9%.
Molecule `C[C@@H](N)c1ccc(C(=O)Nc2ccnc3[nH]ccc23)cc1` + COc1cc2ncnc(Nc3ccc(Oc4ccccc4)cc3)c2cc1OC [SrcI1] (partner dose 2 µM) has a cell count of 93%.
Molecule `Cn1sc(=O)n(Cc2ccccc2)c1=O` + N#Cc1c(O)c2c(-c3ccc(-c4ccccc4O)cc3)csc2[nH]c1=O [A769662] (partner dose 2 µM) has a cell count of 90.9%.
`CCCCCCCCCCCCCCCCCCOP(=O)([O-])OC1CC[N+](C)(C)CC1` [Perifosine] + c1cc(-c2cnn3cc(-c4ccc(OCCN5CCCCC5)cc4)cnc23)ccn1 [Dorsomorphin] (partner dose 0.4 µM) gave a cell count of 88%.
